# Measurements taken from the supplement of paper PMC12217912.
# The list shows a part of the results. Sequences were assembled here from the parent chain. Inactive controls read about 0.05.
# B1: TEV protease; numbered along this chain (parent)
# chain: MGESLFKGPRDYNPISSSICHLTNESDGHTTSLYGIGFGPFIITNKHLFRRNNGTLVVQSLHGVFKVKDTTTLQQHLVDGRDMIIIRMPKDFPPFPQKLKFREPQREERICLVTTNFQTKSMSSMVSDTSCTFPSGDGIFWKHWIQTKDGQCGSPLVSTRDGFIVGIHSASNFTNTNNYFTSVPKNFMELLTNQEAQQWVSGWRLNADSVLWGGHKVFMVKPEEPFQPVKEATQL
# Variants of: B1
# Assay: raw area under fraction-flipped curve 0-4 h after induction (AUC4h, not background-subtracted), DNA-recorder readout of cleavage of the substrate (dimensionless); higher = more cleavage of the substrate by the protease variant
# Settings: temperature: 34 °C; time window: 0-4 h after rhamnose induction
# Protocol: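 In vivo DNA recorder in E. coli TOP10(DE3) ΔrhaA at 34 °C. Each TEVp single-site mutant (parent TEVp 0) is paired with a single-site variant of the 7-mer TEVs (canonical ENLYFQ|S). The substrate sits between flexible linkers in a Bxb1-sfGFP-TEVs-SsrA fusion, so cleavage stabilises Bxb1 and speeds flipping of a recombination array, read by NGS. The value is the raw area under the fraction-flipped curve over 0-4 h after rhamnose induction (AUC4h), with ≥20 reads per time point. It is not background-subtracted; inactive controls average about 0.047.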
# 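Note: Bxb1 expression induced with 0.2% (w/v) L-rhamnose at OD600 near 0.5, cultures sampled hourly, flipped fraction per protease–substrate barcode pair counted by paired-end Illumina sequencing.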
Variant,area with substrate CNLYFQS,area with substrate DNLYFQS,area with substrate FNLYFQS,area with substrate HNLYFQS,area with substrate INLYFQS,area with substrate KNLYFQS,area with substrate LNLYFQS,area with substrate PNLYFQS,area with substrate SNLYFQS,area with substrate TNLYFQS,area with substrate VNLYFQS,area with substrate WNLYFQS,area with substrate YNLYFQS,area with substrate MNLYFQS,area with substrate NNLYFQS,area with substrate GNLYFQS,area with substrate QNLYFQS,area with substrate RNLYFQS
MGESLFKGPRFYNPISSSICHLTNESDGHTTSLYGIGFGPFIITNKHLFRRNNGTLVVQSLHGVFKVKDTTTLQQHLVDGRDMIIIRMPKDFPPFPQKLKFREPQREERICLVTTNFQTKSMSSMVSDTSCTFPSGDGIFWKHWIQTKDGQCGSPLVSTRDGFIVGIHSASNFTNTNNYFTSVPKNFMELLTNQEAQQWVSGWRLNADSVLWGGHKVFMVKPEEPFQPVKEATQL [D11F],0.0595,0.0734,0.0855,0.0652,0.0876,0.0688,0.0415,0.0642,0.0632,0.0739,0.0633,0.0627,0.0554,–,–,–,–,–
MGESLFKGPRPYNPISSSICHLTNESDGHTTSLYGIGFGPFIITNKHLFRRNNGTLVVQSLHGVFKVKDTTTLQQHLVDGRDMIIIRMPKDFPPFPQKLKFREPQREERICLVTTNFQTKSMSSMVSDTSCTFPSGDGIFWKHWIQTKDGQCGSPLVSTRDGFIVGIHSASNFTNTNNYFTSVPKNFMELLTNQEAQQWVSGWRLNADSVLWGGHKVFMVKPEEPFQPVKEATQL [D11P],0.0558,0.0474,–,0.0633,0.0602,0.069,0.0607,0.0606,0.0704,0.0471,0.0586,0.064,0.067,0.0674,0.0514,–,–,–
MGESLFKGPRDCNPISSSICHLTNESDGHTTSLYGIGFGPFIITNKHLFRRNNGTLVVQSLHGVFKVKDTTTLQQHLVDGRDMIIIRMPKDFPPFPQKLKFREPQREERICLVTTNFQTKSMSSMVSDTSCTFPSGDGIFWKHWIQTKDGQCGSPLVSTRDGFIVGIHSASNFTNTNNYFTSVPKNFMELLTNQEAQQWVSGWRLNADSVLWGGHKVFMVKPEEPFQPVKEATQL [Y12C],0.0671,0.089,–,0.0566,0.0688,0.0752,0.0718,0.0635,0.0682,0.0613,0.076,–,0.0544,0.0908,–,0.0797,–,–
MGESLFKGPRDMNPISSSICHLTNESDGHTTSLYGIGFGPFIITNKHLFRRNNGTLVVQSLHGVFKVKDTTTLQQHLVDGRDMIIIRMPKDFPPFPQKLKFREPQREERICLVTTNFQTKSMSSMVSDTSCTFPSGDGIFWKHWIQTKDGQCGSPLVSTRDGFIVGIHSASNFTNTNNYFTSVPKNFMELLTNQEAQQWVSGWRLNADSVLWGGHKVFMVKPEEPFQPVKEATQL [Y12M],0.0705,0.0768,0.0555,0.0531,0.0587,0.0676,0.0591,0.0491,0.0658,0.052,–,0.0476,0.0521,0.0616,–,0.0647,–,–
MGESLFKGPRDNNPISSSICHLTNESDGHTTSLYGIGFGPFIITNKHLFRRNNGTLVVQSLHGVFKVKDTTTLQQHLVDGRDMIIIRMPKDFPPFPQKLKFREPQREERICLVTTNFQTKSMSSMVSDTSCTFPSGDGIFWKHWIQTKDGQCGSPLVSTRDGFIVGIHSASNFTNTNNYFTSVPKNFMELLTNQEAQQWVSGWRLNADSVLWGGHKVFMVKPEEPFQPVKEATQL [Y12N],0.0375,0.0912,0.0697,0.0624,0.0494,0.0744,0.0694,0.112,0.0604,0.0795,0.0877,0.0579,–,–,0.0695,0.0651,0.0649,–
MGESLFKGPRDYFPISSSICHLTNESDGHTTSLYGIGFGPFIITNKHLFRRNNGTLVVQSLHGVFKVKDTTTLQQHLVDGRDMIIIRMPKDFPPFPQKLKFREPQREERICLVTTNFQTKSMSSMVSDTSCTFPSGDGIFWKHWIQTKDGQCGSPLVSTRDGFIVGIHSASNFTNTNNYFTSVPKNFMELLTNQEAQQWVSGWRLNADSVLWGGHKVFMVKPEEPFQPVKEATQL [N13F],0.0879,0.0689,0.0623,0.0611,0.06,0.0729,0.0673,0.0619,0.0691,0.065,0.0722,0.0345,0.0536,0.054,0.0555,0.0717,–,0.0678
MGESLFKGPRDYHPISSSICHLTNESDGHTTSLYGIGFGPFIITNKHLFRRNNGTLVVQSLHGVFKVKDTTTLQQHLVDGRDMIIIRMPKDFPPFPQKLKFREPQREERICLVTTNFQTKSMSSMVSDTSCTFPSGDGIFWKHWIQTKDGQCGSPLVSTRDGFIVGIHSASNFTNTNNYFTSVPKNFMELLTNQEAQQWVSGWRLNADSVLWGGHKVFMVKPEEPFQPVKEATQL [N13H],0.0696,0.0829,0.0707,0.064,0.0639,0.0596,0.0655,0.0709,0.0486,0.0619,0.0928,0.0818,0.056,0.061,0.0717,0.0688,–,–
MGESLFKGPRDYMPISSSICHLTNESDGHTTSLYGIGFGPFIITNKHLFRRNNGTLVVQSLHGVFKVKDTTTLQQHLVDGRDMIIIRMPKDFPPFPQKLKFREPQREERICLVTTNFQTKSMSSMVSDTSCTFPSGDGIFWKHWIQTKDGQCGSPLVSTRDGFIVGIHSASNFTNTNNYFTSVPKNFMELLTNQEAQQWVSGWRLNADSVLWGGHKVFMVKPEEPFQPVKEATQL [N13M],0.0624,0.0575,–,0.0601,–,0.0604,0.072,0.0437,–,0.0781,–,0.0622,–,0.0636,–,–,–,–
MGESLFKGPRDYNEISSSICHLTNESDGHTTSLYGIGFGPFIITNKHLFRRNNGTLVVQSLHGVFKVKDTTTLQQHLVDGRDMIIIRMPKDFPPFPQKLKFREPQREERICLVTTNFQTKSMSSMVSDTSCTFPSGDGIFWKHWIQTKDGQCGSPLVSTRDGFIVGIHSASNFTNTNNYFTSVPKNFMELLTNQEAQQWVSGWRLNADSVLWGGHKVFMVKPEEPFQPVKEATQL [P14E],0.0792,0.0626,0.0662,0.0971,–,0.0815,0.0699,–,0.0679,0.0456,–,0.0498,0.044,–,–,–,–,–
